No constants are given. Whether binding was seen depends on the method and setting. Some results given as binding are weak or reduced against the parent protein; the word gives no strength.

Drawing on article PMC553980, this text covers binding for nine molecules.

Sequences and labels used below:
T1: AtRaptor1B, full length (Arabidopsis) (UniProt Q93YQ1)
T1 sequence: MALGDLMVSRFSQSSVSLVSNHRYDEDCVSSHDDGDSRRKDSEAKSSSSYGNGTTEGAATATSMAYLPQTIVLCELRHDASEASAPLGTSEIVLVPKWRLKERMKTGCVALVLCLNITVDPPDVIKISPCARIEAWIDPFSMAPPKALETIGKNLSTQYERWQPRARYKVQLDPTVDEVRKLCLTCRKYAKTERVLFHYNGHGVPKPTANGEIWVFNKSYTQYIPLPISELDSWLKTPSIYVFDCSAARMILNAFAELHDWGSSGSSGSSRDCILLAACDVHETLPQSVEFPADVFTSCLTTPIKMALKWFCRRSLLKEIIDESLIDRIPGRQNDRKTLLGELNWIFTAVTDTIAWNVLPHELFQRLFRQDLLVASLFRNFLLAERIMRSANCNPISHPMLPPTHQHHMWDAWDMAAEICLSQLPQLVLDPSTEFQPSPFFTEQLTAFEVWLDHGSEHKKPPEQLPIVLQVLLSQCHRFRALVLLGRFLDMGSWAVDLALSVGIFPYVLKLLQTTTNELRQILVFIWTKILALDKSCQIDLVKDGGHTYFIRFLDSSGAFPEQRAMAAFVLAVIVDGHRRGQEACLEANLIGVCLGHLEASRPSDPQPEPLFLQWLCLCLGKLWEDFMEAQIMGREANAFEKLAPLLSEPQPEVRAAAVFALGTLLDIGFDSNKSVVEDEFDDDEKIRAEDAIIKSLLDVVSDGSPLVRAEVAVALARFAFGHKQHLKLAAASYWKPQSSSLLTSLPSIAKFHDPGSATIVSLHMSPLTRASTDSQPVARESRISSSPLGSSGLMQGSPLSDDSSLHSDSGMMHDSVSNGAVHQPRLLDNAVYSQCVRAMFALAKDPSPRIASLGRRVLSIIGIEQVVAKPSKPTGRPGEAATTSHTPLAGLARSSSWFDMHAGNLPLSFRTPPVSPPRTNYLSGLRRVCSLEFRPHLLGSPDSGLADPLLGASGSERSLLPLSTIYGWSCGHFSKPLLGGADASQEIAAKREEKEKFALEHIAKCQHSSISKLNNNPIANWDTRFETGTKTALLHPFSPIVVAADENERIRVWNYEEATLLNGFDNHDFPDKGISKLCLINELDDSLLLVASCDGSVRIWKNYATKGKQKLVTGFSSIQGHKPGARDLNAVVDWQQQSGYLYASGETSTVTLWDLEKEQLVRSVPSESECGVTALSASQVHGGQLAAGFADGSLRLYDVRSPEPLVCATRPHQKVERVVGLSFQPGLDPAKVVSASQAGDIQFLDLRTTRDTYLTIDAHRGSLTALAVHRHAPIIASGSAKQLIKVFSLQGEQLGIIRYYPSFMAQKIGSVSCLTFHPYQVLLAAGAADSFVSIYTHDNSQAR

B1: AML1 fragment N219 (domain or fragment, UniProt Q8W4I9 1-219)
chain: MPSDIMEQRGVSTPSHFHEDIHITSERQFGFMKTDMMPENQGGRDRLSSMPKSSWTSESYQLKPQSSFSGSHPSGSPNARNTTNGSQWESSLFSSSMSDLFSRKLRLQGSDMLSTMSANTVVTHREEEPSESLEEIEAQTIGNLLPDEDDLFAEVTGEVGRKSRANTGDELDEFDLFSSVGGMELDGDIFSSVSHRNGERGGNNSVGELNRGEIPSRTL
B2: AML1 fragment 155–219 (domain or fragment, UniProt Q8W4I9 155-219)
chain: VTGEVGRKSRANTGDELDEFDLFSSVGGMELDGDIFSSVSHRNGERGGNNSVGELNRGEIPSRTL
B3: AML1 fragment 402–704 (domain or fragment, UniProt Q8W4I9 402-704)
chain: SSGHIGRHFPGMISSTSSDGGSMRVIHNSIGSPVNSFIERHRSLSIPIGFPPSANGISASKPVGLQEHGHHFDNSNMGIQSMPNLHPHSFSEYVDNFANGSPYTSSAFSEMVSDGSKANEGFMIHNVRGVEGFSGGGIGSPMHQSSRRPINLWSNSNTQQQNPSSGMMWPNSPSHINSIPTQRPPVTVFSRAPPIMVNMASSPVHHHIGSAPVLNSPFWDRRQAYVAESLESSGFHIGSHGSMGIPGSSPSHPMDIGSHKTFSVGGNRMDVNSQNAVLRSPQQLSHLFPGRSPMGSMPGSFDS
B4: Arabidopsis Mei2-like 1 (AML1), full length (protein, UniProt Q8W4I9 1-915)
chain: MPSDIMEQRGVSTPSHFHEDIHITSERQFGFMKTDMMPENQGGRDRLSSMPKSSWTSESYQLKPQSSFSGSHPSGSPNARNTTNGSQWESSLFSSSMSDLFSRKLRLQGSDMLSTMSANTVVTHREEEPSESLEEIEAQTIGNLLPDEDDLFAEVTGEVGRKSRANTGDELDEFDLFSSVGGMELDGDIFSSVSHRNGERGGNNSVGELNRGEIPSRTLLVGNISSNVEDYELKVLFEQFGDIQALHTACKNRGFIMVSYCDIRAAQNAARALQNKLLRGTKLDIRYSISKENPSQKDTSKGALLVNNLDSSISNQELNRLVKSYGEVKEIRRTMHDNSQIYIEFFDVRAAAAALGGLNGLEVAGKKLQLVPTYPEGTRYTSQCAANDTEGCLPKTSYSNTSSGHIGRHFPGMISSTSSDGGSMRVIHNSIGSPVNSFIERHRSLSIPIGFPPSANGISASKPVGLQEHGHHFDNSNMGIQSMPNLHPHSFSEYVDNFANGSPYTSSAFSEMVSDGSKANEGFMIHNVRGVEGFSGGGIGSPMHQSSRRPINLWSNSNTQQQNPSSGMMWPNSPSHINSIPTQRPPVTVFSRAPPIMVNMASSPVHHHIGSAPVLNSPFWDRRQAYVAESLESSGFHIGSHGSMGIPGSSPSHPMDIGSHKTFSVGGNRMDVNSQNAVLRSPQQLSHLFPGRSPMGSMPGSFDSPNERYRNLSHRRSESSSSNADKKLYELDVDRILRGEDRRTTLMIKNIPNKYTSKMLLSAIDEHCKGTYDFLYLPIDFKNKCNVGYAFINLIEPEKIVPFFKAFNGKKWEKFNSEKVATLTYARIQGKTALIAHFQNSSLMNEDKRCRPILFHTDGPNAGDQEPFPMGSNIRSRPGKPRSSSIDNYNSFSISSVSENREETPNGTDPFLKEN
B5: AML1 fragment N163 (domain or fragment, UniProt Q8W4I9 1-163)
chain: MPSDIMEQRGVSTPSHFHEDIHITSERQFGFMKTDMMPENQGGRDRLSSMPKSSWTSESYQLKPQSSFSGSHPSGSPNARNTTNGSQWESSLFSSSMSDLFSRKLRLQGSDMLSTMSANTVVTHREEEPSESLEEIEAQTIGNLLPDEDDLFAEVTGEVGRKS
B6: AML1 fragment 402C (domain or fragment, UniProt Q8W4I9 402-915)
chain: SSGHIGRHFPGMISSTSSDGGSMRVIHNSIGSPVNSFIERHRSLSIPIGFPPSANGISASKPVGLQEHGHHFDNSNMGIQSMPNLHPHSFSEYVDNFANGSPYTSSAFSEMVSDGSKANEGFMIHNVRGVEGFSGGGIGSPMHQSSRRPINLWSNSNTQQQNPSSGMMWPNSPSHINSIPTQRPPVTVFSRAPPIMVNMASSPVHHHIGSAPVLNSPFWDRRQAYVAESLESSGFHIGSHGSMGIPGSSPSHPMDIGSHKTFSVGGNRMDVNSQNAVLRSPQQLSHLFPGRSPMGSMPGSFDSPNERYRNLSHRRSESSSSNADKKLYELDVDRILRGEDRRTTLMIKNIPNKYTSKMLLSAIDEHCKGTYDFLYLPIDFKNKCNVGYAFINLIEPEKIVPFFKAFNGKKWEKFNSEKVATLTYARIQGKTALIAHFQNSSLMNEDKRCRPILFHTDGPNAGDQEPFPMGSNIRSRPGKPRSSSIDNYNSFSISSVSENREETPNGTDPFLKEN
B7: AML1 fragment 155–412 (domain or fragment, UniProt Q8W4I9 155-412)
chain: VTGEVGRKSRANTGDELDEFDLFSSVGGMELDGDIFSSVSHRNGERGGNNSVGELNRGEIPSRTLLVGNISSNVEDYELKVLFEQFGDIQALHTACKNRGFIMVSYCDIRAAQNAARALQNKLLRGTKLDIRYSISKENPSQKDTSKGALLVNNLDSSISNQELNRLVKSYGEVKEIRRTMHDNSQIYIEFFDVRAAAAALGGLNGLEVAGKKLQLVPTYPEGTRYTSQCAANDTEGCLPKTSYSNTSSGHIGRHFPG
B8: AML1 fragment N412 (domain or fragment, UniProt Q8W4I9 1-412)
chain: MPSDIMEQRGVSTPSHFHEDIHITSERQFGFMKTDMMPENQGGRDRLSSMPKSSWTSESYQLKPQSSFSGSHPSGSPNARNTTNGSQWESSLFSSSMSDLFSRKLRLQGSDMLSTMSANTVVTHREEEPSESLEEIEAQTIGNLLPDEDDLFAEVTGEVGRKSRANTGDELDEFDLFSSVGGMELDGDIFSSVSHRNGERGGNNSVGELNRGEIPSRTLLVGNISSNVEDYELKVLFEQFGDIQALHTACKNRGFIMVSYCDIRAAQNAARALQNKLLRGTKLDIRYSISKENPSQKDTSKGALLVNNLDSSISNQELNRLVKSYGEVKEIRRTMHDNSQIYIEFFDVRAAAAALGGLNGLEVAGKKLQLVPTYPEGTRYTSQCAANDTEGCLPKTSYSNTSSGHIGRHFPG
B9: AML1 fragment 695C (domain or fragment, UniProt Q8W4I9 695-915)
chain: MGSMPGSFDSPNERYRNLSHRRSESSSSNADKKLYELDVDRILRGEDRRTTLMIKNIPNKYTSKMLLSAIDEHCKGTYDFLYLPIDFKNKCNVGYAFINLIEPEKIVPFFKAFNGKKWEKFNSEKVATLTYARIQGKTALIAHFQNSSLMNEDKRCRPILFHTDGPNAGDQEPFPMGSNIRSRPGKPRSSSIDNYNSFSISSVSENREETPNGTDPFLKEN

For the experiment, the target named is T1, AtRaptor1B, full length (Arabidopsis). Put plainly: two-hybrid; AH109 yeast co-transformed with AML1 or its fragments in pGADT7 (AD) and AtRaptor1B in pGBKT7 (BD); growth on medium lacking leucine, tryptophan, histidine and adenine; colonies observed 3-7 days after transformation.
Turning to B1, the binding result is “binds”.
The value for B2 was “no binding”; that for B3 was “no binding”; that for B4 was “binds”.
Turning to B5, the binding entry is “no binding”.
The value for B6 was “no binding”; that for B7 was “no binding”.
To B8 belongs “binds”.
The value for B9 was “no binding”.
